Paper PMC4667618
Results are given in words; binding and its absence hold for the method and conditions named. Binding seen in cells or lysates may run through a third protein. Some entries that bind do so weakly or less than the wild type.

Chains of the proteins cited; added tags and fusions are not shown.
UniProt Q03267: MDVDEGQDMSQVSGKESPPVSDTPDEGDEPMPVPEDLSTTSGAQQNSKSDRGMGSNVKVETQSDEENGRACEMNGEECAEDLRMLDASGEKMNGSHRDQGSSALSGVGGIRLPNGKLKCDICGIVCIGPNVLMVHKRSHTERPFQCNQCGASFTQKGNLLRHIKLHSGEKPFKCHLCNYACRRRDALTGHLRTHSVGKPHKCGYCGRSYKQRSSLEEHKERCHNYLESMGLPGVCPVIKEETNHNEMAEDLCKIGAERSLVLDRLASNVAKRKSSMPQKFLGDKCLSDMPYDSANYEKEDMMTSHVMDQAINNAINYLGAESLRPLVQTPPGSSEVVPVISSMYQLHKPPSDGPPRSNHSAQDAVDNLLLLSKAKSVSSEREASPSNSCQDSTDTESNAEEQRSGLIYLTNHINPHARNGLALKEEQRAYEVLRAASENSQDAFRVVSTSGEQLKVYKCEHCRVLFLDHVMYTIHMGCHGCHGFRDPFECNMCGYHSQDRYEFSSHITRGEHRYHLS
UniProt Q9R190: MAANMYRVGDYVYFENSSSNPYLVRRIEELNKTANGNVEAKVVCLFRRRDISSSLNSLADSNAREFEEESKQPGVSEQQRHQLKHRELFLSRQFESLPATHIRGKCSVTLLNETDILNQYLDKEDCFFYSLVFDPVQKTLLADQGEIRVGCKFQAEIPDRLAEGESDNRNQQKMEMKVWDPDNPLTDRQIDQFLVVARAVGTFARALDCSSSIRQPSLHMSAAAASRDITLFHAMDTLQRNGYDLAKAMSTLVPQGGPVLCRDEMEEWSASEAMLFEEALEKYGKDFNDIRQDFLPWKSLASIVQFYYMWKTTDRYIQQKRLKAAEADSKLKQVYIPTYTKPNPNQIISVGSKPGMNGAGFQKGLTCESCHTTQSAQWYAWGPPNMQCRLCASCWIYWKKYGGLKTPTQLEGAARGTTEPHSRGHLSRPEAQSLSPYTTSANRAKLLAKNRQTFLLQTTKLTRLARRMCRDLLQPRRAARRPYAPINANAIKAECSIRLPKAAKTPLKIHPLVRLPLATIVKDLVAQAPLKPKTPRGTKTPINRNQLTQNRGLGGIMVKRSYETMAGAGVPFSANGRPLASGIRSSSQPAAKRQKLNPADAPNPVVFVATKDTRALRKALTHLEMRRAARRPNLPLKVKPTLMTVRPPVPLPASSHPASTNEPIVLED
UniProt Q80U70: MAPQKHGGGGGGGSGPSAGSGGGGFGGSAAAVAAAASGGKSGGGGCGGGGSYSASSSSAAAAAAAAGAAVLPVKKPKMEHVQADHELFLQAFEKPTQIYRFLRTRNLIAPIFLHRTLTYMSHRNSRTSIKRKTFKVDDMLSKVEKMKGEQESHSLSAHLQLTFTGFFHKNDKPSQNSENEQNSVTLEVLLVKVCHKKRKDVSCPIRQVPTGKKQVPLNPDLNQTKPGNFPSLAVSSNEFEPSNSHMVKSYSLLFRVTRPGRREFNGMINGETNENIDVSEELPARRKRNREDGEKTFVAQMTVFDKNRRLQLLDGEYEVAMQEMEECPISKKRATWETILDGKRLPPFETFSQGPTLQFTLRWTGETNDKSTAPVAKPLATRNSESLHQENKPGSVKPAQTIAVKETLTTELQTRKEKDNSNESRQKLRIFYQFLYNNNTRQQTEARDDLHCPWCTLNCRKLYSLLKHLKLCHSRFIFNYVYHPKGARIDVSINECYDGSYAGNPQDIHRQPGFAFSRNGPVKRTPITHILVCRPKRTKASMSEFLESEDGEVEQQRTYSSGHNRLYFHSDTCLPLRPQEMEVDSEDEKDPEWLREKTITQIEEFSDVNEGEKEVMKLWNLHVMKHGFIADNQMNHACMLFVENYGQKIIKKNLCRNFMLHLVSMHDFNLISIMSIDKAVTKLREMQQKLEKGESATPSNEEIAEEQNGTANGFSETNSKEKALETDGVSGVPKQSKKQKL
UniProt Q6PDQ2: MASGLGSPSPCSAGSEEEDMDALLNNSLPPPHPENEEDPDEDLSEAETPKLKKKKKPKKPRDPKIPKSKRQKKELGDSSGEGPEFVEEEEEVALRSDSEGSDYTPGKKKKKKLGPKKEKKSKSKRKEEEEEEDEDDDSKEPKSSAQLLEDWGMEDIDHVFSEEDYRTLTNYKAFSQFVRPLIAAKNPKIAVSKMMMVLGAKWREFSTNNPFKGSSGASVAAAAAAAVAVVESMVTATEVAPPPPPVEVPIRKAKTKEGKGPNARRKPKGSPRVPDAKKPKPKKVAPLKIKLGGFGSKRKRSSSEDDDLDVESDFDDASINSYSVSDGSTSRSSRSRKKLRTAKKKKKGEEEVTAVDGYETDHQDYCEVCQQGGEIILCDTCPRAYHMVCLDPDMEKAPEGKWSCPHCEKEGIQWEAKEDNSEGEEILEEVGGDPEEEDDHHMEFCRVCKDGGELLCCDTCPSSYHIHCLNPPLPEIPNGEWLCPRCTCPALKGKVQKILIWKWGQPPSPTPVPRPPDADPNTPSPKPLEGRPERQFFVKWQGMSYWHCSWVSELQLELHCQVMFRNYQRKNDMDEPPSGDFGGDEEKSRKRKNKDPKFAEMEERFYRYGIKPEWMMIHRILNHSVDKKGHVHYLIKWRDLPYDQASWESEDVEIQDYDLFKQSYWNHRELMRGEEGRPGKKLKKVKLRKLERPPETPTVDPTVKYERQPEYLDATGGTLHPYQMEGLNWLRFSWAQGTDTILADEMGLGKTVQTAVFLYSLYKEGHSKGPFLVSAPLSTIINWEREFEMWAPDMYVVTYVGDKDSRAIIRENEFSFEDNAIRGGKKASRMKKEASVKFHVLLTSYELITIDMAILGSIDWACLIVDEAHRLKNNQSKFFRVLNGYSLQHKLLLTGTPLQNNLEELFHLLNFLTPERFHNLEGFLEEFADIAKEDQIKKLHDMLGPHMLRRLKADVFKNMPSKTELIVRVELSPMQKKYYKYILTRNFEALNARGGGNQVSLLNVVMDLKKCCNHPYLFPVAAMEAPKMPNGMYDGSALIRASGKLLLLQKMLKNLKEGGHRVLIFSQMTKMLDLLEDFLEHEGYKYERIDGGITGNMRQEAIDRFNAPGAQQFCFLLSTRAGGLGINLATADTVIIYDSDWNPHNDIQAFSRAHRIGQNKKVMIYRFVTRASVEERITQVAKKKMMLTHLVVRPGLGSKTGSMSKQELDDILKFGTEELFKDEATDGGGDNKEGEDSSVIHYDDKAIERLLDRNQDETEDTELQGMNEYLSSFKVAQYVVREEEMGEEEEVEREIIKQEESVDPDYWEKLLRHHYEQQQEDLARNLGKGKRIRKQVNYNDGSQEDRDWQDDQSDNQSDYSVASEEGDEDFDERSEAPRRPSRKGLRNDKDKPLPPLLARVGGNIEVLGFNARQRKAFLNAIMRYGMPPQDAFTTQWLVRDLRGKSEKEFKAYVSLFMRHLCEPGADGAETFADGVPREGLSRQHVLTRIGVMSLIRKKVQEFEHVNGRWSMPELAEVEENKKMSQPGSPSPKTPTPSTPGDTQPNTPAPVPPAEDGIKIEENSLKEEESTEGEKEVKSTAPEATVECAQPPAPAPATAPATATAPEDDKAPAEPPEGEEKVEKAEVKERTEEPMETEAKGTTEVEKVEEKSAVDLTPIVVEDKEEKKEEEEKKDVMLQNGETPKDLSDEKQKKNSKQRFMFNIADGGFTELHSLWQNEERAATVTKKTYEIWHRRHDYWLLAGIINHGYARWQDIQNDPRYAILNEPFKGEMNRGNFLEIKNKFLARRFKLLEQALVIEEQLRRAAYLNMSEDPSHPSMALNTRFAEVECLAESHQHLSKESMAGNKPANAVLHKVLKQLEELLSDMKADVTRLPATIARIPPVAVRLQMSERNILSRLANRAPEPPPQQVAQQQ
UniProt Q61188: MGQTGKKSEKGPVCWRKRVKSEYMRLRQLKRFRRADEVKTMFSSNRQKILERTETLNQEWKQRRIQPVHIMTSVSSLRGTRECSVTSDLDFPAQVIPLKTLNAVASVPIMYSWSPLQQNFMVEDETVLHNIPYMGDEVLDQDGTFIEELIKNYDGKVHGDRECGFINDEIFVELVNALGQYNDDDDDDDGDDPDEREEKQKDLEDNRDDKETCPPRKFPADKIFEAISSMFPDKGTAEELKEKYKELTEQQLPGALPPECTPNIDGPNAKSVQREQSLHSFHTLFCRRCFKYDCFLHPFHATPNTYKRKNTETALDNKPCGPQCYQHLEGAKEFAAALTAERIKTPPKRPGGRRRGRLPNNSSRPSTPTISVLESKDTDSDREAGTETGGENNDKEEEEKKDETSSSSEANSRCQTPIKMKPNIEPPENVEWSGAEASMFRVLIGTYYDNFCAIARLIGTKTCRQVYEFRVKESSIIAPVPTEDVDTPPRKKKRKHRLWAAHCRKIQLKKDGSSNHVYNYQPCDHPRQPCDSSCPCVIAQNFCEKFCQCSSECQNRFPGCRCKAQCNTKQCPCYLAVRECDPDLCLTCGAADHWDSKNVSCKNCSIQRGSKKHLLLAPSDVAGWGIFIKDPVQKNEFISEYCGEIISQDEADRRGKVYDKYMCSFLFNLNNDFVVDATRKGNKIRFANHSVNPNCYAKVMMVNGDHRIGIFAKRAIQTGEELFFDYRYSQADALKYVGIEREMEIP

Key:
[1] = molecular target: Ikaros (Ik1 isoform) constitutively expressed in ILC87 cells (UniProt Q03267); test: co-IP; nuclear extracts of ILC87-Ik1-Bcl2 cells; anti-Ikaros or IgG IP; IPs and washing steps performed in the presence of 0.3 or 0.5 M NaCl
[2] = molecular target: Ik1-GST fusion protein (full-length Ikaros1 isoform) (UniProt Q03267); test: pull-down; GST-Ik1 or GST immobilised on glutathione agarose beads, incubated overnight at 4 °C with nuclear extracts of Ikaros-null ILC87 cells; washed 5x with RIPA buffer containing 300 mM NaCl; western blotting; only the target purified
[3] = molecular target: Ikaros, endogenous in primary WT DN thymocytes (mouse (endogenous in thymocytes)) (UniProt Q03267); test: co-IP; ~333 μg nuclear extracts from WT CD4-CD8-CD3- (DN) thymocytes; IP with anti-Ikaros, anti-Suz12 or IgG; western blotting
[4] = molecular target: Mta2 (mouse (endogenous in ILC87 cells)) (UniProt Q9R190); test: co-IP; nuclear extracts of ILC87-Ik1-Bcl2 cells first incubated in three consecutive steps with IgG- or anti-Mta2- and anti-Mi2β-coupled Protein A/G beads (NuRD depletion); supernatants subjected to Ikaros, Mta2, Mi2β or IgG IPs for 8 h at 4 °C; washed 5x with RIPA containing 300 mM NaCl
[5] = molecular target: Ikaros (Ik1 isoform) constitutively expressed in ILC87 cells (UniProt Q03267); test: as above
[6] = molecular target: Ikaros (Ik1 isoform) constitutively expressed in ILC87 cells (UniProt Q03267); test: co-IP; nuclear extracts (RIPA buffer) of ILC87-Ik1-Bcl2 cells, or of ILC87-Bcl2 cells expressing Ikaros deletion mutants; IP with anti-Ikaros, anti-Suz12, anti-Ezh2 or IgG overnight at 4 °C; washed 5x with RIPA containing 300 mM NaCl; western blotting
[7] = molecular target: Ikaros (Ik1 isoform) constitutively expressed in ILC87 cells (UniProt Q03267); test: co-IP; nuclear extracts of ILC87-Ik1-Bcl2 cells; anti-Ikaros or IgG IP; immune complexes washed in the presence of 0.3, 0.5 or 1 M NaCl, or 1 M NaCl plus 8 M urea
[8] = molecular target: Suz12 (mouse (endogenous in ILC87 cells and thymocytes)) (UniProt Q80U70); test: co-IP; nuclear extracts (RIPA buffer) of ILC87-Ik1-Bcl2 cells, or of ILC87-Bcl2 cells expressing Ikaros deletion mutants; IP with anti-Ikaros, anti-Suz12, anti-Ezh2 or IgG overnight at 4 °C; washed 5x with RIPA containing 300 mM NaCl; western blotting
[9] = molecular target: Suz12 (mouse (endogenous in ILC87 cells and thymocytes)) (UniProt Q80U70); test: co-IP; ~333 μg nuclear extracts from WT CD4-CD8-CD3- (DN) thymocytes; IP with anti-Ikaros, anti-Suz12 or IgG; western blotting
[10] = molecular target: Mi2β (CHD4) (mouse (endogenous in ILC87 cells)) (UniProt Q6PDQ2); test: co-IP; nuclear extracts of ILC87-Ik1-Bcl2 cells first incubated in three consecutive steps with IgG- or anti-Mta2- and anti-Mi2β-coupled Protein A/G beads (NuRD depletion); supernatants subjected to Ikaros, Mta2, Mi2β or IgG IPs for 8 h at 4 °C; washed 5x with RIPA containing 300 mM NaCl
[11] = molecular target: Ezh2 (mouse (endogenous in ILC87 cells and thymocytes)) (UniProt Q61188); test: co-IP; nuclear extracts (RIPA buffer) of ILC87-Ik1-Bcl2 cells, or of ILC87-Bcl2 cells expressing Ikaros deletion mutants; IP with anti-Ikaros, anti-Suz12, anti-Ezh2 or IgG overnight at 4 °C; washed 5x with RIPA containing 300 mM NaCl; western blotting

| Substance | binding [1] | binding [2] | binding [3] | binding [4] | binding [5] | binding [6] | binding [7] | binding [8] | binding [9] | binding [10] | binding [11] |
| --- | --- | --- | --- | --- | --- | --- | --- | --- | --- | --- | --- |
| Ezh2 (from UniProt Q61188 1-746) | binds | binds | binds | no binding | binds | binds | binds | – | – | – | – |
| Ikaros, endogenous in primary WT DN thymocytes (from UniProt Q03267 1-517) | – | – | – | – | – | – | – | – | binds | – | – |
| Suz12 (from UniProt Q80U70 1-741) | – | binds | binds | no binding | binds | binds | – | – | – | no binding | – |
| Mta2 (from UniProt Q9R190 1-668) | binds | – | – | – | binds | binds | binds | no binding | – | – | no binding |

Other lines, results leading:

| binding [1] | binding [2] | binding [3] | binding [4] | binding [5] | binding [6] | binding [7] | binding [8] | binding [9] | binding [10] | binding [11] | Substance |
| --- | --- | --- | --- | --- | --- | --- | --- | --- | --- | --- | --- |
| – | – | – | – | binds | binds | – | no binding | – | – | – | Mi2β (CHD4) (from UniProt Q6PDQ2 1-1915) |
| – | – | – | – | – | – | – | binds | – | – | binds | Ikaros (Ik1 isoform) constitutively expressed in ILC87 cells (from UniProt Q03267 1-517) |
